# Measured values from PubChem BioAssay AID686979 (National Center for Advancing Translational Sciences (NCATS), 2013).
# “And” between values parts separate entries of the source, which are not always exact repeats. Equal entries are not always repeated. Screen size: about 420,000 compounds; about 50,000 (12%) were called active. The inconclusive results got no clear call from the source; some entries with a clear call stand among them for comparison. The call rests on the fitted dose curve; in most records, active means well fitted inhibition curve with a large enough effect; inconclusive means small, poorly fitted or top-dose-only effect; inactive means flat fitted curve, though single readings scatter. A potency beside an inconclusive call is a rough fit, not a confirmed value.
# Experiment: qHTS for Inhibitors of human tyrosyl-DNA phosphodiesterase 1 (TDP1): qHTS in cells in presence of CPT; further: nearly all actives have a fitted effect of over 55% in size
# Conditions: chicken DT40 Tdp1-/-;hTDP1 cells + 20 nM CPT, ATP luminescence, 48 h; activity change, negative = growth inhibition: at 46.2 µM (top of the series) unless noted
# How it was run: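 Chicken DT40 Tdp1-/- cells stably complemented with human TDP1 were seeded at 400 cells/well in medium containing 20 nM camptothecin, exposed to pin-transferred compounds, and grown at 37 °C for at least 48 hr. Viability was read as ATP luminescence.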
# On the % scale 0 is the no-effect control and ±100 the full control effect; potency means the concentration at half of the fitted maximal effect; tags describe the fitted curve by direction and shape.
Compound,Potency,"activity change, negative = growth inhibition"
O=S(=O)(NC1CCCCC1N1CCN(c2ccc(F)cc2)CC1)c1ccccc1 (configuration not stated),"inconclusive: 25.9 µM [inhibitor, single point]",
Cc1nn(CC(=O)NCCc2ccccc2)c(C)c1[N+](=O)[O-],"inconclusive: 32.6 µM [inhibitor, single point]",
CCN1CCCC1CNC(=O)c1cnn(-c2nccc(-c3cc4ccccc4o3)n2)c1C1CC1 (configuration not stated),"inconclusive: 6.51 µM [inhibitor, single point]",
CN(c1ccccc1)S(=O)(=O)c1cc(C(=O)NCc2ccco2)ccc1Cl,,inactive: -13.8%
CCOC(=O)c1sc(NC(=O)/C=C/c2ccc(F)cc2)nc1C,"inconclusive: 18.4 µM [inhibitor, partial curve, poor fit]",
CC(C(=O)NCc1ccccc1)N(Cc1ccccc1Cl)C(=O)c1snc(C(N)=O)c1N (configuration not stated),,inconclusive: 3.84% [inhibitor]
CCN(CC(=O)Nc1cc(Cl)ccc1C)C(=O)c1ccc2c(c1)NC(=O)C(C)S2 (configuration not stated),"inconclusive: 29.1 µM [inhibitor, single point]",
O=C1Nc2ccccc2-n2nnnc2C1N1CCN(c2ccc(C(F)(F)F)cc2[N+](=O)[O-])CC1 (configuration not stated),active: 23.1 µM,
Cc1ccc2c(c1)N(CC(=O)NCCc1ccccc1)C(=O)CO2,,inactive: 2.89%
CCc1ccc(OCCOCC(O)CNC(C)(C)C)cc1 (configuration not stated),"inconclusive: 29.1 µM [inhibitor, single point]",
CCOc1ccc2[nH]c(=O)c(C(c3nnnn3Cc3ccco3)N3CCCC(C)C3)cc2c1 (configuration not stated),"inconclusive: 9.2 µM [inhibitor, partial curve]",
COc1ccc2c(c1)C=C(CN1CCN(Cc3ccccc3C)C(CCO)C1)CO2 (configuration not stated),,inactive: -20.6%
CCCCC1(C)Nc2ccccc2-c2nc3ccccc3n21 (configuration not stated),active: 16.4 µM,
C/C(=N\NC(=S)NCCc1ccccc1)c1ccc(C#N)cc1,"inconclusive: 25.9 µM [inhibitor, single point]",
CC(NC(=O)CSC(=S)N(C)C)C12CC3CC(CC(C3)C1)C2 (configuration not stated),"inconclusive: 25.9 µM [inhibitor, single point]",
Cc1cccc(N=C2NC(=O)/C(=C/c3cccnc3)S2)c1C,"inconclusive: 25.9 µM [inhibitor, single point]",
Cc1cc(C(C)(C)C)oc1C(=O)N(CC(=O)NC1CCCC1)c1c(C)cccc1C,active: 11.6 µM,
Cc1nn(-c2ccccc2)c2nc(N)c(C#N)c(-c3ccc(C(C)(C)C)cc3)c12,"inconclusive: 8.2 µM [inhibitor, partial curve]",
CCCC(=O)Nc1cc2nn(-c3ccccc3)nc2cc1C,,inactive: -1.95%
Cn1c(=O)c(C(=O)Nc2ccccn2)c(O)c2ccccc21,"inconclusive: 25.9 µM [inhibitor, single point]",
CC(C)OCCCNc1ncnc2sc3c(c12)CCCC3,active: 20.6 µM,

Compound,Potency,"activity change, negative = growth inhibition"
COc1cc2[nH]c(=O)n(CCCC(=O)N3CC=C(c4ccccc4)CC3)c(=O)c2cc1OC,"inconclusive: 18.4 µM [inhibitor, single point]",
CCc1nnc(NC(=O)CCC(=O)N2CCN(C3c4ccccc4-c4ccccc43)CC2)s1,"inconclusive: 20.6 µM [inhibitor, single point]",
CCCCn1cc(S(=O)(=O)c2cc(C)ccc2C)c(=O)c2cc(F)c(N3CCC(C)CC3)cc21,"inconclusive: 0.58 µM [inhibitor, full curve, poor fit]",
Cc1ccc(C)c(Cn2c(=O)n(CCCCC(=O)NCc3ccc4c(c3)OCO4)c(=O)c3ccccc32)c1,"inconclusive: 20.6 µM [inhibitor, single point]",
COC(=O)C1C(C(=O)OC)C1(c1ccccc1)c1ccccc1 (configuration not stated),,inactive: -8.91%
CC(=O)N(c1ccccc1)c1nc(/C=C/C(=O)O)cs1,,inactive: -18.7%
O=C(NCc1cccc(F)c1)c1[nH]c(C(F)(F)F)nc1-c1ccccc1,"inconclusive: 11.6 µM [inhibitor, partial curve]",
CCOC(=O)[C@]12CCCC=C1N(CCC1=CCCCC1)C(=O)[C@H](CC(=O)NCCc1ccccc1OC)C2,active: 13 µM,
CCC(CO)Oc1cc(NCc2ccc(C(F)(F)F)cc2)c2ncn(C(C)C)c2c1 (configuration not stated),"inconclusive: 29.1 µM [inhibitor, single point]",
COc1ccc(C(=O)NCC(c2ccco2)S(=O)(=O)c2ccc(F)cc2)cc1 (configuration not stated),"inconclusive: 23.1 µM [inhibitor, single point]",
O=C(N/C(=C/c1cccc([N+](=O)[O-])c1)C(=O)N1CCCCC1)c1ccco1,,inactive: -1.25%
COc1ccc(CNC(=O)C2(CC3CC(c4ccccc4)=NO3)CCN(C(=O)OC(C)(C)C)CC2)cc1 (configuration not stated),"inconclusive: 25.9 µM [inhibitor, single point]",
Cc1cc(C)n(CCN(C)C(=O)C2CCC(=O)N(CCN3CCOCC3)C2)n1 (configuration not stated),,inactive: 1.3%
O=C1CCC(=O)N(O)CCCCCNC(=O)CCC(=O)N(O)CCCCCNC(=O)CCC(=O)N(O)CCCCCN1,"inconclusive: 29.1 µM [inhibitor, single point]",
O=C(CCOc1ccccc1)Nc1ccc(Cl)c(S(=O)(=O)N2CCOCC2)c1,"inconclusive: 29.1 µM [inhibitor, single point]",
N#CCCC(C#N)(c1cccnc1)N1CCOCC1 (configuration not stated),,inactive: 2.23%
Cc1ccccc1-c1nnc(SCC(=O)Nc2cccnc2Cl)o1,active: 13 µM,
CCCCN(CCCC)CCCNC(=O)Cn1cc2c(n1)-c1c(oc(C(=O)N3CCCC3)c1C)CC2,"inactive and inconclusive: 29.1 µM [inhibitor, single point]",
O=C(NCc1ccco1)C1CC(c2ccccc2O)=NO1 (configuration not stated),"inconclusive: 16.4 µM [inhibitor, single point]",
COC(=O)c1ccc(N2CCN(S(=O)(=O)c3ccc(Br)cc3)CC2)c([N+](=O)[O-])c1,"inconclusive: 29.1 µM [inhibitor, single point]",
O=C(Nc1ccccc1)O[C@@H]1C[C@H]2CCC(=O)N3CC[C@@H](C1)[C@@H]23,"inconclusive: 35.5 µM [inhibitor, single point]",
